Laboratory results: the supplement of paper PMC8728848
Some of the results follow.

Key:
Assay in all cases: glycan array binding signal (z-score within array); higher = stronger binding
Details in all cases: glycan notation: IUPAC condensed, linker removed
[1] = target: Man(a1-3)[Man(a1-6)]Man(a1-6)[Man(a1-2)Man(a1-3)]Man(b1-4)GlcNAc(b1-4)GlcNAc
In short: (§1)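 Columns mapping to the same glycan were averaged after glycan names were converted to IUPAC-condensed notation. The data come from 3228 arrays in the Consortium for Functional Glycomics database, limited to those with an available protein sequence. Binding is reported as a within-array Z-score averaged across arrays of one protein sequence and across linkers.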

[2] = target: Man(a1-3)[Man(a1-6)]Man(a1-6)[Man(a1-3)]Man(b1-4)GlcNAc(b1-4)GlcNAc
In short: as §1

[3] = target: Man(a1-3)[Man(a1-6)]Man(b1-4)GlcNAc(b1-4)GlcNAc
In short: as §1

[4] = target: Man(b1-4)GlcNAc
In short: as §1

[5] = target: Neu5Ac(a2-3)Gal
In short: as §1

[6] = target: Neu5Ac(a2-3)Gal(b1-3)GalNAc
In short: as §1

[7] = target: Neu5Ac(a2-3)Gal(b1-3)GalNAc(b1-3)Gal(a1-4)Gal(b1-4)Glc
In short: as §1

[8] = target: Neu5Ac(a2-3)Gal(b1-3)GalNAc(b1-3)Gal(b1-4)GlcNAc
In short: as §1

[9] = target: Neu5Ac(a2-3)Gal(b1-3)GalNAc(b1-4)[Neu5Ac(a2-3)]Gal(b1-4)Glc
In short: as §1

[10] = target: Neu5Ac(a2-3)Gal(b1-3)GalNAc6S
In short: as §1

[11] = target: Neu5Ac(a2-3)Gal(b1-3)GlcNAc
In short: as §1

[12] = target: Neu5Ac(a2-3)Gal(b1-3)GlcNAc6S
In short: as §1

[13] = target: Neu5Ac(a2-3)Gal(b1-3)[Fuc(a1-4)]GlcNAc
In short: as §1

[14] = target: Neu5Ac(a2-3)Gal(b1-3)[Fuc(a1-4)]GlcNAc(b1-3)Gal(b1-4)[Fuc(a1-3)]GlcNAc
In short: as §1

[15] = target: Neu5Ac(a2-3)Gal(b1-3)[Neu5Ac(a2-3)Gal(b1-4)]GlcNAc
In short: as §1

[16] = target: Neu5Ac(a2-3)Gal(b1-3)[Neu5Ac(a2-6)]GalNAc
In short: as §1

[17] = target: Neu5Ac(a2-3)Gal(b1-4)Glc
In short: as §1

[18] = target: Neu5Ac(a2-3)Gal(b1-4)GlcNAc
In short: as §1

[19] = target: Neu5Ac(a2-3)Gal(b1-4)GlcNAc(b1-3)Gal(b1-4)GlcNAc
In short: as §1

[20] = target: Neu5Ac(a2-3)Gal(b1-4)GlcNAc(b1-3)Gal(b1-4)GlcNAc(b1-3)Gal(b1-4)GlcNAc
In short: as §1

[21] = target: Neu5Ac(a2-3)Gal(b1-4)GlcNAc(b1-3)Gal(b1-4)[Fuc(a1-3)]GlcNAc
In short: as §1

[22] = target: Neu5Ac(a2-3)Gal(b1-4)GlcNAc6S
In short: as §1

[23] = target: Neu5Ac(a2-3)Gal(b1-4)[Fuc(a1-3)]GlcNAc
In short: as §1

[24] = target: Neu5Ac(a2-3)Gal(b1-4)[Fuc(a1-3)]GlcNAc(b1-3)Gal
In short: as §1

[25] = target: Neu5Ac(a2-3)Gal(b1-4)[Fuc(a1-3)]GlcNAc(b1-3)Gal(b1-4)GlcNAc
In short: as §1

[26] = target: Neu5Ac(a2-3)Gal(b1-4)[Fuc(a1-3)]GlcNAc(b1-3)Gal(b1-4)[Fuc(a1-3)]GlcNAc(b1-3)Gal(b1-4)[Fuc(a1-3)]GlcNAc
In short: as §1

[27] = target: Neu5Ac(a2-3)Gal(b1-4)[Fuc(a1-3)]GlcNAc6S
In short: as §1

[28] = target: Neu5Ac(a2-3)Gal6S(b1-4)GlcNAc
In short: as §1

[29] = target: Neu5Ac(a2-3)Gal6S(b1-4)[Fuc(a1-3)]GlcNAc
In short: as §1

[30] = target: Neu5Ac(a2-3)GalNAc
In short: as §1

[31] = target: Neu5Ac(a2-3)GalNAc(b1-4)GlcNAc
In short: as §1

[32] = target: Neu5Ac(a2-3)[GalNAc(b1-4)]Gal(b1-4)Glc
In short: as §1

[33] = target: Neu5Ac(a2-3)[GalNAc(b1-4)]Gal(b1-4)GlcNAc
In short: as §1

[34] = target: Neu5Ac(a2-3)[Neu5Ac(a2-6)]GalNAc
In short: as §1

[35] = target: Neu5Ac(a2-6)Gal
In short: as §1

[36] = target: Neu5Ac(a2-6)Gal(b1-4)Glc
In short: as §1

[37] = target: Neu5Ac(a2-6)Gal(b1-4)GlcNAc
In short: as §1

[38] = target: Neu5Ac(a2-6)Gal(b1-4)GlcNAc(b1-2)Man(a1-3)[Neu5Ac(a2-6)Gal(b1-4)GlcNAc(b1-2)Man(a1-6)]Man(b1-4)GlcNAc(b1-4)GlcNAc
In short: as §1

[39] = target: Neu5Ac(a2-6)Gal(b1-4)GlcNAc(b1-3)Gal(b1-4)GlcNAc
In short: as §1

[40] = target: Neu5Ac(a2-6)Gal(b1-4)GlcNAc(b1-3)Gal(b1-4)[Fuc(a1-3)]GlcNAc(b1-3)Gal(b1-4)[Fuc(a1-3)]GlcNAc
In short: as §1

[41] = target: Neu5Ac(a2-6)Gal(b1-4)GlcNAc6S
In short: as §1

[42] = target: Neu5Ac(a2-6)GalNAc
In short: as §1

[43] = target: Neu5Ac(a2-6)GalNAc(b1-4)GlcNAc
In short: as §1

[44] = target: Neu5Ac(a2-8)Neu5Ac
In short: as §1

[45] = target: Neu5Ac(a2-8)Neu5Ac(a2-3)Gal(b1-4)Glc
In short: as §1

B1: DCIR (Homo sapiens), Q9UMR7 (protein)
chain: MTSEITYAEVRFKNEFKSSGINTASSAASKERTAPHKSNTGFPKLLCASLLIFFLLLAISFFIAFVIFFQKYSQLLEKKTTKELVHTTLECVKKNMPVEETAWSCCPKNWKSFSSNCYFISTESASWQDSEKDCARMEAHLLVINTQEEQDFIFQNLQEESAYFVGLSDPEGQRHWQWVDQTPYNESSTFWHPREPSDPNERCVVLNFRKSPKRWGWNDVNCLGPQRSVCEMMKIHL
[1]
  glycan array binding signal (z-score): -0.349
[2]
  glycan array binding signal (z-score): -0.242
[3]
  glycan array binding signal (z-score): -0.14
[4]
  glycan array binding signal (z-score): -0.179
[5]
  glycan array binding signal (z-score): 0.446
[6]
  glycan array binding signal (z-score): 0.431
[7]
  glycan array binding signal (z-score): -0.45
[8]
  glycan array binding signal (z-score): -0.161
[9]
  glycan array binding signal (z-score): -0.298
[10]
  glycan array binding signal (z-score): 1.02
[11]
  glycan array binding signal (z-score): -0.077
[12]
  glycan array binding signal (z-score): 0.3
[13]
  glycan array binding signal (z-score): -0.452
[14]
  glycan array binding signal (z-score): -0.136
[15]
  glycan array binding signal (z-score): -0.382
[16]
  glycan array binding signal (z-score): -0.425
[17]
  glycan array binding signal (z-score): -0.483
[18]
  glycan array binding signal (z-score): -0.202
[19]
  glycan array binding signal (z-score): -0.119
[20]
  glycan array binding signal (z-score): 0.196
[21]
  glycan array binding signal (z-score): -0.435
[22]
  glycan array binding signal (z-score): 1.32
[23]
  glycan array binding signal (z-score): -0.173
[24]
  glycan array binding signal (z-score): -0.071
[25]
  glycan array binding signal (z-score): -0.392
[26]
  glycan array binding signal (z-score): -0.372
[27]
  glycan array binding signal (z-score): -0.213
[28]
  glycan array binding signal (z-score): -0.055
[29]
  glycan array binding signal (z-score): -0.15
[30]
  glycan array binding signal (z-score): -0.163
[31]
  glycan array binding signal (z-score): -0.382
[32]
  glycan array binding signal (z-score): -0.433
[33]
  glycan array binding signal (z-score): -0.064
[34]
  glycan array binding signal (z-score): -0.304
[35]
  glycan array binding signal (z-score): -0.039
[36]
  glycan array binding signal (z-score): -0.16
[37]
  glycan array binding signal (z-score): -0.217
[38]
  glycan array binding signal (z-score): -0.178
[39]
  glycan array binding signal (z-score): -0.415
[40]
  glycan array binding signal (z-score): -0.304
[41]
  glycan array binding signal (z-score): 0.011
[42]
  glycan array binding signal (z-score): -0.245
[43]
  glycan array binding signal (z-score): 0.018
[44]
  glycan array binding signal (z-score): -0.501
[45]
  glycan array binding signal (z-score): -0.187
